About 2,200 (0.71%) of roughly 310,000 compounds showed an effect of 50% or more. Effects have a minus sign here. The list shows a part of the results.
Each compound was assayed against human ether-à-go-go-related gene (hERG) potassium channel (human, UniProt Q12809) (assay: primary screen, population patch clamp on CHO cells stably expressing hERG).
Sequence of human ether-à-go-go-related gene (hERG) potassium channel (Q12809 whole entry, looked up): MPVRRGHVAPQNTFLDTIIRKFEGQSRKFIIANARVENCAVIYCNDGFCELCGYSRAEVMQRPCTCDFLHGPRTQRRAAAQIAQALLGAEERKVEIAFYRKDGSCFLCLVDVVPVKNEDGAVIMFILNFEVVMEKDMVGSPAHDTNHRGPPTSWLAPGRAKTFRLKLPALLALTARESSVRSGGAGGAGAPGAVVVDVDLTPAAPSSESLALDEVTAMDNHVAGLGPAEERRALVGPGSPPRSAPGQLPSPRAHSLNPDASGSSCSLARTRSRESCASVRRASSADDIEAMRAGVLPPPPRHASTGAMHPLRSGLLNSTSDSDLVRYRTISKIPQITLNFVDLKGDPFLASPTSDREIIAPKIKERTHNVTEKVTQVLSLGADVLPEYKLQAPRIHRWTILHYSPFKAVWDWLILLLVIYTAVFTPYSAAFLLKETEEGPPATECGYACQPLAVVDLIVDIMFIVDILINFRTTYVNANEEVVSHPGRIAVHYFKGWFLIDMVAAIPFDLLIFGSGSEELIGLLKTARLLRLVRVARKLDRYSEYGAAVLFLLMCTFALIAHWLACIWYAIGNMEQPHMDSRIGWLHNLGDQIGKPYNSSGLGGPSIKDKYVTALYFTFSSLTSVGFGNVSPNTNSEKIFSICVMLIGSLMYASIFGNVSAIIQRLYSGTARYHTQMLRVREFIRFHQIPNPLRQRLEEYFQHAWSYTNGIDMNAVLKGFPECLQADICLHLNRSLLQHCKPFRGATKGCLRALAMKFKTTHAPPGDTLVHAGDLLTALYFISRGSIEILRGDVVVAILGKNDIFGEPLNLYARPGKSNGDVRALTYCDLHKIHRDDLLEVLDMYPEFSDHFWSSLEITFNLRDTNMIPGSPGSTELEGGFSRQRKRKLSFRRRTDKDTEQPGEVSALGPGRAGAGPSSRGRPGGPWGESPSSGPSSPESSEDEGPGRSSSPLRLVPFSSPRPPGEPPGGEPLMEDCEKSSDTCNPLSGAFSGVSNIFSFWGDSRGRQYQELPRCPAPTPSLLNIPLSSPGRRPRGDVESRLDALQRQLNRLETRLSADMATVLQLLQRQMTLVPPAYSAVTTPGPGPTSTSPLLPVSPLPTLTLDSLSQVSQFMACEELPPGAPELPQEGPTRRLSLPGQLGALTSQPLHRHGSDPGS

Compound	hERG current change (%, negative = inhibition) at 1uM
Cn1cc(CN2CCCC(C(=O)Nc3cccc(-n4cccn4)c3)C2)cn1 (stereo not drawn)	8.76%
CCOc1ccc(CCNC(=O)COC(=O)c2ccc(Br)o2)cc1OCC	12.8%
COc1ccc2[nH]c3c(c2c1)CCC/C3=N\N	15.1%
Cc1ccc(CCS(=O)(=O)c2ccc(C(C)(C)C)cc2)cn1	19.6%
COc1ccc(-c2cc(=O)oc3cc(OCc4nn[nH]n4)ccc23)cc1	17%
COc1ccc(N2CC(C(=O)Nc3cccc(C)n3)CC2=O)cc1 (stereo not drawn)	6.67%
CC(C)(C)OC(=O)NNc1c2ccccc2nc2ccccc12	16.9%
COc1cc(/C=C(\C#N)C(=O)NC(C)C)ccc1OCc1ccc(C(=O)O)cc1	9.84%
O=C(c1ccc2c(c1)OCO2)N1CCCc2ccccc21	17.5%
O=C(Cn1cnc2cc(Cl)ccc2c1=O)Nc1ccc2c(c1)OCO2	10.3%
N#CC1=C(N)Oc2n[nH]c(-c3ccccc3)c2C1c1cccc(OC(=O)N2CCOCC2)c1 (stereo not drawn)	8.55%
Cn1c(=O)n(C)c2cc(/C=N/NC(=O)c3ccncc3)ccc21	13.2%
CCOCc1nnc(NC(=O)CS(=O)(=O)c2ccc(C)cc2)s1	12.2%
CC(=O)N(C)CC#CCN1CCC(O)CC1	12.3%
CCOC(=O)CCc1c(C)c2c(C)nn(-c3ccccc3)c2[nH]c1=O	0.469%
CN1CCN(C(=O)c2cc(COc3ccc(F)cc3Cl)on2)CC1c1ccccc1 (stereo not drawn)	7.28%
COc1ccc(C(C(=O)NCC2CCCO2)N(C(=O)Cn2nnc3ccccc32)c2ccc(NC(C)=O)cc2)cc1 (stereo not drawn)	12%
CCOc1ccc(C(=O)NCC2OCCc3ccccc32)cc1 (stereo not drawn)	3.68%
O=C(Nc1ccccc1)c1cnc2ccccc2n1	4.89%
O=c1c2cc3c(=O)n(-c4ccccc4O)c(=O)c3cc2c(=O)n1-c1ccccc1O	6.38%
Cc1c(C)c2c(OCC(=O)N[C@@H](Cc3ccccc3)C(=O)O)cc3c(c2oc1=O)CCC(C)(C)O3	10.5%
CCOCCCNC(=O)c1cc2c(=O)n3cccc(C)c3nc2n1C	17.3%
COc1ccccc1NC(=O)CCSc1ccc(C)cc1	11.6%

Compound	hERG current change (%, negative = inhibition) at 1uM
C=CCNC(=O)NC(=O)c1csc([N+](=O)[O-])c1	8.85%
N#CCSc1ncnc2sc3c(c12)CCC3	6.9%
O=C(NCCc1nc2ccccc2[nH]1)c1cc([N+](=O)[O-])cc([N+](=O)[O-])c1	0.372%
O=C(CSC1=NCCS1)N1CCN(c2ccccc2)CC1	-2.13%
O=C(Cn1ncc2c([nH]c3ccccc32)c1=O)N1CCN(c2ccccn2)CC1	17.9%
COc1ccccc1-c1nnc2sc(-c3cnccn3)nn12	8.35%
CC(=O)c1cccc(NC(=O)c2cc(C)no2)c1	13.1%
CCCOc1cccc(-c2nn(-c3ccccc3)cc2/C=C(\C#N)C(=O)NCCCn2ccnc2)c1	13.6%
C=CCn1c(CSCc2ccccc2)nnc1SCC(=O)NCc1ccccc1	-9.04%
CCCN(CC(=O)Nc1ccc(C(C)=O)cc1)CC(=O)Nc1ccccc1C	20%
Cc1ccc(NCc2nnc3n2CCCCC3)cc1	13.6%
FC(F)(F)c1cc(-c2ccccc2)nc(NC2CCCC2)n1	17.3%
COc1ccc(N2CCN(C(=O)CSc3nc4ccccc4c(=O)[nH]3)CC2)cc1	5.08%
C=CCN(C)CC/C=C1\c2ccccc2CSc2ccccc21.Cl	-2.38%
O=C1C[C@H]2[C@H](CO)[C@@H](OC(=O)c3ccc(-c4ccccc4)cc3)C[C@H]2O1	9.31%
O=C(N/N=C/c1ccco1)c1cccc(S(=O)(=O)Nc2ccccc2Cl)c1	5.29%
O=C(N/N=C/c1ccc(OC(F)F)cc1)c1cccc(S(=O)(=O)N2CCOCC2)c1	1.24%
CCOC(=O)N1CCC(N2C(=O)c3cc(C(=O)NC4CCCCC4)ccc3C2O)CC1 (stereo not drawn)	-2.75%
COc1cnn(-c2ccc([N+](=O)[O-])cc2)c(=O)c1Cl	10.3%
O=C(O)c1cccc(Cn2c(Cl)c(/C=N/NC(=O)c3ccc(O)cc3)sc2=O)c1	2.77%
Cc1cccc(C)c1NC(=O)CN(C)C(=O)CC1Sc2ccccc2NC1=O (stereo not drawn)	11.6%
COc1ccc(CCNC2CC(=O)N(CCc3ccccc3)C2=O)cc1OC (stereo not drawn)	8.77%
